According to the antibiotic and cytotoxicity screens of Wong et al. (2023):
This is one part of the list.

Tests used:
HSkMC = human skeletal muscle cells; test: cytotoxicity call (relative viability < 0.9); conditions: 10 µM
HepG2 = test: cytotoxicity call (relative viability < 0.9); conditions: 10 µM
S. aureus RN4220 = test: growth inhibition call (relative growth <= 0.2); conditions: 50 µM

Compound | cytotoxicity call (HSkMC) | cytotoxicity call (HepG2) | growth inhibition call (S. aureus RN4220)
C[C@@H]1CCCCO[C@H](CN(C)C(=O)Nc2ccc(C(F)(F)F)cc2)[C@H](C)CN([C@@H](C)CO)C(=O)c2cc(NC(=O)CCC(F)(F)F)ccc2O1 | inactive | active | inactive
CC(C)NC(=O)N(C)C[C@@H]1OCCCC[C@@H](C)Oc2ccc(NS(=O)(=O)c3cn(C)cn3)cc2C(=O)N([C@H](C)CO)C[C@H]1C | inactive | inactive | inactive
O=C(CN1CCOCC1)NCC[C@@H]1CC[C@@H](NS(=O)(=O)c2ccc(Cl)cc2)[C@@H](CO)O1 | inactive | inactive | inactive
COC[C@@H]1CN(C)C(=O)[C@H]2CCN(S(=O)(=O)N(C)C)CC[C@@H]12 | inactive | inactive | inactive
NNC(=O)c1cc(-c2ccccc2)n[nH]1 | inactive | inactive | inactive
C[C@@H]1CN([C@H](C)CO)C(=O)CCCn2cc(nn2)CO[C@H]1CN(C)C(=O)Nc1ccc(N2CCN(C)CC2)cc1 | inactive | inactive | inactive
CCC(=O)C12CC3CC(CC(C3)C1)C2 | inactive | inactive | inactive
CC=Cc1ccc(OC)cc1 | inactive | active | inactive
O=C(CCCCCCC(=O)N/N=C/[C@H](O)[C@@H](O)[C@H](O)CO)NO | inactive | inactive | inactive
C[C@@H]1CN([C@H](C)CO)C(=O)Cc2cc(NS(=O)(=O)c3cn(C)cn3)ccc2O[C@H]1CN(C)C | inactive | inactive | inactive
Cc1ccc(S[C@]2(C(=O)O)CC(=O)N(Cc3ccccc3C(F)(F)F)[C@@H]2c2ccc(CO)cc2)cc1 | inactive | inactive | inactive
CCS(=O)(=O)N1CC[C@]2(CC1)CN([C@@H](CO)c1c2c2ccc(cc2n1C)OC)C(=O)CN1CCOCC1 | inactive | inactive | inactive
COc1ccc(CCNC(=O)[C@@]2(Sc3ccc(C)cc3)CC(=O)N(Cc3ccccc3C(F)(F)F)[C@@H]2c2ccc(CO)cc2I)cc1 | inactive | inactive | inactive
C[C@H]1CN([C@@H](C)CO)S(=O)(=O)c2ccc(C#Cc3cccnc3)cc2O[C@H]1CN(C)C(=O)Nc1ccc2c(c1)OCO2 | inactive | inactive | inactive
C[C@H]1CN([C@@H](C)CO)C(=O)Cc2cc(NC(=O)c3ccncc3)ccc2O[C@H]1CN(C)Cc1ccc(Oc2ccccc2)cc1 | inactive | inactive | inactive
C[C@H](CO)N1C[C@H](C)[C@@H](CN(C)S(=O)(=O)c2cn(C)cn2)Oc2ccc(NC(=O)NC3CCCCC3)cc2C1=O | inactive | inactive | inactive
CC(C)[N+]1(C)C2CCC1CC(OC(=O)C(CO)c1ccccc1)C2.[Br-] (stereo not given) | inactive | inactive | inactive
C[C@@H]1CCCCO[C@H](CN(C)CC2CCCCC2)[C@H](C)CN([C@H](C)CO)C(=O)c2cc(NC(=O)CCC(F)(F)F)ccc2O1 | inactive | inactive | inactive
C[C@@H]1CCCCO[C@H](CN(C)S(=O)(=O)c2ccc(F)cc2)[C@H](C)CN([C@@H](C)CO)C(=O)c2cc(NC(=O)Nc3ccc(F)cc3)ccc2O1 | inactive | inactive | inactive
C[C@@H]1CN([C@@H](C)CO)C(=O)Cc2cc(NC(=O)Nc3ccc(F)cc3)ccc2O[C@H]1CN(C)Cc1ccc(Cl)c(Cl)c1 | active | active | inactive
COCC#Cc1cnc2c(c1)C(=O)N([C@@H](C)CO)C[C@H](C)[C@@H](CN(C)S(=O)(=O)c1ccccc1)O2 | inactive | inactive | inactive
COc1cc(Cc2cc3c(c(CCc4ccccc4)n2)[Si](C(C)C)(C(C)C)OC3)cc(OC)c1OC | inactive | inactive | inactive
COC1=C2C[C@@H](C)C[C@H](OC)[C@H](O)[C@@H](C)/C=C(\C)[C@H](OC(N)=O)[C@@H](OC)/C=C\C=C(/C)C(=O)NC(=CC1=O)C2=O | inactive | active | inactive
COc1ccc(CN(C)C[C@@H]2OCCCC[C@@H](C)Oc3ccc(NS(=O)(=O)c4c(C)noc4C)cc3C(=O)N([C@@H](C)CO)C[C@H]2C)cc1 | inactive | inactive | inactive
COc1ccc(NC(=O)Nc2ccc3c(c2)C(=O)N([C@H](C)CO)C[C@@H](C)[C@@H](CN(C)Cc2ccccc2)OCCCC[C@@H](C)O3)cc1 | inactive | inactive | inactive
C[C@H]1CN([C@@H](C)CO)C(=O)c2cccc(NC(=O)NC3CCCCC3)c2O[C@H]1CN(C)Cc1ccc(C(F)(F)F)cc1 | inactive | inactive | inactive
COc1ccc(S(=O)(=O)Nc2ccc3c(c2)C(=O)N([C@@H](C)CO)C[C@@H](C)[C@H](CN(C)C(=O)C2CCCCC2)OCCCC[C@@H](C)O3)cc1 | inactive | inactive | inactive
Cc1noc(C)c1NC(=O)N(C)C[C@@H]1OCCCC[C@@H](C)Oc2ccc(NC(=O)CCC(F)(F)F)cc2C(=O)N([C@H](C)CO)C[C@@H]1C | inactive | inactive | inactive

Compound | cytotoxicity call (HSkMC) | cytotoxicity call (HepG2) | growth inhibition call (S. aureus RN4220)
COc1ccccc1S(=O)(=O)N(C)C[C@@H]1OCc2cn(nn2)CCCC(=O)N([C@@H](C)CO)C[C@@H]1C | inactive | inactive | inactive
C[C@@H]1CN([C@@H](C)CO)C(=O)Cc2cc(NC(=O)CCCCCC(=O)Nc3ccccc3N)ccc2O[C@@H]1CN(C)Cc1ccc(-c2ccccc2)cc1 | inactive | active | inactive
C[C@@H]1CN([C@H](C)CO)C(=O)c2cc(NC(=O)Nc3ccc(C(F)(F)F)cc3)ccc2O[C@@H](C)CCCCO[C@H]1CN(C)S(=O)(=O)c1ccc(F)cc1 | inactive | inactive | inactive
C[C@H](CO)N1C[C@H](C)[C@@H](CN(C)Cc2ccc3c(c2)OCO3)Oc2ccc(NC(=O)Cn3cnnn3)cc2CC1=O | inactive | inactive | inactive
COc1ccc(NC(=O)N(C)C[C@H]2OCCCC[C@@H](C)Oc3ccc(NC(=O)Nc4ccc5c(c4)OCO5)cc3C(=O)N([C@H](C)CO)C[C@H]2C)cc1 | inactive | inactive | inactive
Cn1nc(CCO)cc1C(F)(F)F | inactive | inactive | inactive
COc1ccc(NC(=O)N(C)C[C@H]2Oc3c(NC(=O)c4cc(C)nn4C)cccc3C(=O)N([C@@H](C)CO)C[C@@H]2C)cc1 | inactive | inactive | inactive
Cc1noc(C)c1NC(=O)N(C)C[C@@H]1Oc2ccc(NC(=O)Nc3ccc(C(F)(F)F)cc3)cc2C(=O)N([C@H](C)CO)C[C@H]1C | inactive | inactive | inactive
C[C@@H]1CN([C@@H](C)CO)C(=O)c2cc(C#CCC3CCCC3)cnc2O[C@H]1CN(C)C(=O)c1cnccn1 | inactive | inactive | inactive
COCC#Cc1ccc2c(c1)O[C@@H](CN(C)C(=O)c1ccccc1F)[C@H](C)CN([C@@H](C)CO)S2(=O)=O | inactive | inactive | inactive
C[C@H](CO)N1C[C@H](C)[C@H](CN(C)Cc2ccc(Oc3ccccc3)cc2)Oc2c(NC(=O)Nc3cccc4ccccc34)cccc2C1=O | inactive | inactive | inactive
C[C@@H]1CCCCO[C@H](CN(C)Cc2ccc(C(=O)O)cc2)[C@@H](C)CN([C@H](C)CO)C(=O)c2cc(NS(=O)(=O)c3ccccc3)ccc2O1 | inactive | inactive | inactive
C#Cc1cnc(OC)cn1 | inactive | inactive | inactive
C[C@@H]1CCCCO[C@@H](CN(C)CC2CC2)[C@H](C)CN([C@H](C)CO)C(=O)c2cc(NC(=O)Nc3ccc(C(F)(F)F)cc3)ccc2O1 | inactive | inactive | inactive
COCC(=O)N(C)C[C@@H]1Oc2cc(C#CC(C)(C)O)ccc2S(=O)(=O)N([C@@H](C)CO)C[C@H]1C | inactive | inactive | inactive
CN(C)CC#Cc1ccc([C@H]2[C@H]3CN(C(=O)CN(C)C)CCCCN3[C@H]2CO)cc1 | inactive | inactive | inactive
C[C@H]1CN([C@@H](C)CO)C(=O)Cc2cc(N(C)C)ccc2O[C@@H]1CN(C)S(=O)(=O)c1ccc(F)cc1 | inactive | inactive | inactive
C[C@@H]1CCCCO[C@H](CN(C)C(=O)Nc2cccc3ccccc23)[C@@H](C)CN([C@H](C)CO)C(=O)c2cc(NC(=O)c3ccccc3)ccc2O1 | inactive | inactive | inactive
C[C@@H]1CN([C@H](C)CO)C(=O)c2cccc(NC(=O)c3ccc(-c4nccs4)cc3)c2O[C@@H]1CN(C)S(C)(=O)=O | inactive | inactive | inactive
COc1ccc(S(=O)(=O)Nc2ccc3c(c2)C(=O)N([C@@H](C)CO)C[C@H](C)[C@@H](CN(C)C(=O)c2ccccc2)OCCCC[C@@H](C)O3)cc1 | inactive | inactive | inactive
CC1(C)[C@H]2CC[C@@]1(C)/C(=N/O)C2 | inactive | inactive | inactive
C[C@@H]1CN([C@@H](C)CO)C(=O)c2cc(NC(=O)C3CCCCC3)ccc2O[C@@H](C)CCCCO[C@@H]1CN(C)Cc1ccccc1 | inactive | inactive | inactive
COc1ccc(S(=O)(=O)Nc2ccc3c(c2)C(=O)N([C@H](C)CO)C[C@@H](C)[C@@H](CN(C)S(=O)(=O)c2cccs2)O3)cc1 | inactive | inactive | inactive
O=C(C[C@@H]1CC[C@@H]2[C@H](COC[C@@H](O)CN2S(=O)(=O)c2ccc(Cl)cc2)O1)NCC1CCCCC1 | inactive | inactive | inactive
O=C1[C@@H]2[C@H](C(=O)N1c1ccccc1)C13COC[C@H](c4ccccc4)N1C(=O)C2(C(=O)NCc1ccccc1)O3 (stereo not given in full) | inactive | inactive | inactive
COCCNC(=O)C[C@H]1C[C@H]2c3cc(NC(=O)Nc4ccc(C(F)(F)F)cc4)ccc3O[C@H]2[C@H](CO)O1 | inactive | inactive | inactive
COC(=O)[C@H]1CCCC[C@@H]1CN | inactive | inactive | inactive
